According to the supplement of paper PMC4967469:
IC50 is the fitted dose that halves viability relative to control wells, and lower means more sensitive; fits outside the tested doses are given as limits. The AUC spans the tested range (256-fold, ending at the top dose) of the same fit; the more sensitive the line, the further below 1. For part of these data: Where the top dose is marked as inferred, it was derived from the fitted curves, not read from the paper. For part of these data: Drugs with an entry number were screened twice under separate entries, and the two screens often disagree.

Assays:
Assay in all cases: Viability of human cancer cell lines after 72 h of drug (GDSC screen)
[1] = compound: c1ccc2c(CCNc3ccc(Nc4ccncc4)cc3)c[nH]c2c1 [JNJ-26854165]; conditions: top dose 10 µM
Experimental: (§1)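 Human cancer cell lines in 384-well plates, medium with 10% serum, drug for 72 h over a 256-fold dose range (nine 2-fold or five 4-fold steps up to the top dose). Adherent lines were fixed and stained with the nucleic acid dye Syto60, suspension lines read with resazurin; signal relative to control wells, capped at 0 and 100%. One two-parameter sigmoid per drug and line, fitted in a mixed model over all curves with the slope shared within a line.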

[2] = compound: COC(=O)[C@H](CCSC)NC(=O)c1ccc(NC[C@@H](N)CS)cc1-c1ccccc1 [FTI-277]; conditions: top dose 1.024 µM; top dose inferred
Experimental: as §1

[3] = compound: CCOc1nc(NC(=O)Cc2cc(OC)ccc2OC)cc(N)c1C#N [JNK Inhibitor VIII]; conditions: top dose 10 µM; top dose inferred
Experimental: as §1

[4] = compound: CN1CCN(c2ccc([N+](=O)[O-])c3no[n+]([O-])c23)CC1 [NSC-207895]; conditions: top dose 20 µM; top dose inferred
Experimental: as §1

[5] = compound: COCC[n+]1c2c(n(Cc3cnccn3)c1C)C(=O)c1ccccc1C2=O [YM155]; conditions: top dose 5.12 µM
Experimental: as §1

[6] = compound: O=C(/C=C/c1cccc(S(=O)(=O)Nc2ccccc2)c1)NO [Belinostat]; conditions: top dose 20 µM; top dose inferred
Experimental: as §1

[7] = compound: Cc1ccc(C(=O)N(CCCN)[C@@H](c2nc3cc(Cl)ccc3c(=O)n2Cc2ccccc2)C(C)C)cc1 [SB-715992]; conditions: top dose 0.128 µM; top dose inferred
Experimental: as §1

[8] = compound: C[C@]1(O)C[C@@H](c2nc(-c3ccc4ccc(-c5ccccc5)nc4c3)c3c(N)nccn32)C1 [OSI-906]; conditions: top dose 2.56 µM; top dose inferred
Experimental: as §1

[9] = compound: CC1(C)CNc2cc(NC(=O)c3cccnc3NCc3ccncc3)ccc21 [AMG-706]; conditions: top dose 2 µM; top dose inferred
Experimental: as §1

[10] = compound: CC(=O)O[C@@]12CO[C@@H]1C[C@H](O)[C@@]1(C)C(=O)[C@H](O)C3=C(C)[C@@H](OC(=O)[C@H](O)[C@@H](NC(=O)OC(C)(C)C)c4ccccc4)C[C@@](O)([C@@H](OC(=O)c4ccccc4)[C@H]21)C3(C)C [Docetaxel]; conditions: top dose 0.0125 µM
Experimental: as §1

[11] = compound: Cc1sc2c(c1C)C(c1ccc(Cl)cc1)=N[C@@H](CC(=O)OC(C)(C)C)c1nnc(C)n1-2 [JQ1]
Experimental: as §1

[12] = top dose 1 µM, screen: GDSC drug entry 1218, top dose inferred
[13] = top dose 2.56 µM, screen: GDSC drug entry 163

Row | Cell Line | AUC [1] | IC50 [1] [µM] | AUC [2] | IC50 [2] [µM] | AUC [3] | IC50 [3] [µM] | AUC [4] | IC50 [4] [µM] | AUC [5] | IC50 [5] [µM] | AUC [6] | IC50 [6] [µM] | AUC [7] | IC50 [7] [µM] | AUC [8] | IC50 [8] [µM] | AUC [9] | IC50 [9] [µM] | AUC [10] | IC50 [10] [µM] | AUC [11, 12] | IC50 [11, 12] [µM] | AUC [11, 13] | IC50 [11, 13] [µM]
1 | H2795 (mesothelioma, adherent) | 0.918 | > 10 | 0.982 | > 1.02 | 0.956 | > 10 | 0.907 | > 20 | 0.193 | 0.0395 | 0.585 | 2.12 | 0.987 | > 0.128 | 0.908 | > 2.56 | 0.948 | > 2 | 0.692 | 0.00267 | 0.986 | > 1 | 0.88 | > 2.56
2 | H2869 (mesothelioma, adherent) | 0.913 | > 10 | 0.977 | > 1.02 | 0.946 | > 10 | 0.96 | > 20 | 0.118 | < 0.02 | 0.523 | 1.47 | 0.97 | > 0.128 | 0.746 | 0.979 | 0.941 | > 2 | 0.939 | > 0.0125 | 0.982 | > 1 | 0.931 | > 2.56
3 | H3118 (head and neck, adherent) | 0.859 | 9.61 | 0.929 | > 1.02 | 0.971 | > 10 | 0.976 | > 20 | 0.058 | < 0.02 | 0.271 | 0.259 | 0.714 | 0.0343 | 0.717 | 0.701 | 0.981 | > 2 | 0.707 | 0.0032 | 0.947 | > 1 | 0.584 | 0.279
4 | HCC38 (breast, adherent) | 0.876 | > 10 | 0.962 | > 1.02 | 0.982 | > 10 | 0.924 | > 20 | 0.041 | < 0.02 | 0.451 | 0.908 | 0.904 | > 0.128 | 0.972 | > 2.56 | 0.986 | > 2 | 0.824 | 0.00823 | 0.984 | > 1 | 0.572 | 0.255
5 | HCC1395 (breast, adherent) | 0.875 | > 10 | 0.969 | > 1.02 | 0.962 | > 10 | 0.98 | > 20 | 0.409 | 0.171 | 0.797 | 11.7 | 0.96 | > 0.128 | 0.981 | > 2.56 | 0.939 | > 2 | 0.888 | > 0.0125 | 0.978 | > 1 | 0.548 | 0.222
6 | HCC1419 (breast, adherent) | 0.869 | > 10 | 0.979 | > 1.02 | 0.891 | > 10 | 0.976 | > 20 | 0.413 | 0.167 | 0.638 | 3.53 | 0.971 | > 0.128 | 0.979 | > 2.56 | 0.816 | 1.76 | 0.951 | > 0.0125 | 0.98 | > 1 | 0.685 | 0.664
7 | HCC1428 (breast, adherent) | 0.946 | > 10 | 0.983 | > 1.02 | 0.973 | > 10 | 0.987 | > 20 | 0.092 | < 0.02 | 0.409 | 0.689 | 0.987 | > 0.128 | 0.974 | > 2.56 | 0.956 | > 2 | 0.917 | > 0.0125 | 0.985 | > 1 | 0.537 | 0.204
8 | HCC1500 (breast, adherent) | 0.958 | > 10 | 0.988 | > 1.02 | 0.988 | > 10 | 0.962 | > 20 | 0.442 | 0.221 | 0.437 | 0.836 | 0.939 | > 0.128 | 0.983 | > 2.56 | 0.987 | > 2 | 0.974 | > 0.0125 | 0.924 | > 1 | 0.815 | 1.48
9 | HCC1569 (breast, adherent) | 0.853 | > 10 | 0.974 | > 1.02 | 0.98 | > 10 | 0.972 | > 20 | 0.331 | 0.092 | 0.535 | 1.61 | 0.917 | > 0.128 | 0.972 | > 2.56 | 0.981 | > 2 | 0.957 | > 0.0125 | 0.957 | > 1 | 0.56 | 0.247
10 | HCC1954 (breast, adherent) | 0.847 | 9.23 | 0.977 | > 1.02 | 0.968 | > 10 | 0.983 | > 20 | 0.082 | < 0.02 | 0.643 | 3.33 | 0.446 | 0.00554 | 0.984 | > 2.56 | 0.977 | > 2 | 0.864 | > 0.0125 | 0.972 | > 1 | 0.965 | > 2.56
11 | HCC-44 (lung adenocarcinoma, adherent) | 0.932 | > 10 | 0.947 | > 1.02 | 0.947 | > 10 | 0.908 | > 20 | 0.046 | < 0.02 | 0.301 | 0.351 | 0.602 | 0.0151 | 0.832 | 1.59 | 0.955 | > 2 | 0.331 | 0.000267 | 0.985 | > 1 | 0.568 | 0.245
